# Assay results published in the supplement of paper PMC8047034.
# Where a name gives a salt, the structure may show the parent alone. The list shows a part of the results. Repeats are few or missing, and single values can be far off.
# Key:
# [1] = tested on: OVCAR4; test: log2 surviving fraction (library drug vs vehicle, or drug + carboplatin vs carboplatin alone; relative to plate median); ovarian cancer lines: OVCAR4 is platinum-sensitive and Ov4Carbo platinum-resistant; higher = more cell survival; details: library drug concentration 10 µM, 7 days
# [2] = tested on: Ov4Carbo; test: as above; details: library drug concentration 10 µM, 7 days
Structure (SMILES),log2 surviving fraction ([1]; carboplatin co-treatment 0 µM),log2 surviving fraction ([1]; carboplatin co-treatment 5 µM),log2 surviving fraction ([2]; carboplatin co-treatment 0 µM),log2 surviving fraction ([2]; carboplatin co-treatment 5 µM)
CC(=O)S[C@@H]1CC2=CC(=O)CC[C@]2(C)[C@H]2CC[C@@]3(C)[C@@H](CC[C@@]34CCC(=O)O4)[C@H]12 [Spironolactone],-2.18,-2.07,-1.24,-2.03
COC(=O)N/N=C/c1c[n+]([O-])c2ccccc2[n+]1[O-] [Carbadox],-0.0843,0.101,0.791,-0.167
O=c1[nH]c(=O)n([C@H]2C[C@H](O)[C@@H](CO)O2)cc1F [Floxuridine],-2.32,-3.59,-2.95,-2.51
CN(C)[C@@H]1C(O)=C(C(N)=O)C(=O)[C@@]2(O)C(O)=C3C(=O)c4c(O)ccc(Cl)c4[C@@](C)(O)[C@H]3C[C@@H]12 [Chlortetracycline HCl],0.0868,0.681,0.152,0.139
O=c1oc2cc(O)ccc2s1 [Tioxolone],-0.325,-0.238,-0.165,-0.229
O=C1O[C@H]([C@@H](O)CO)C([O-])=C1O.[Na+] [Sodium ascorbate],0.478,0.452,0.0987,0.804
N[C@@H]1CCCCN(c2c(F)cc3c(=O)c(C(=O)O)cn(C4CC4)c3c2Cl)C1 [Besifloxacin HCl (Besivance)],0.723,-0.401,-0.147,-1.05
CN1CCN(c2c(F)cc3c(=O)c(C(=O)O)cn(CCF)c3c2F)CC1 [Fleroxacin (Quinodis)],0.618,-0.0688,0.133,0.563
CN(C)CCC(c1ccccc1)c1ccccn1 (stereo unspecified) [Pheniramine Maleate],-0.591,-0.289,-0.691,-0.706
